Results published in PMC13083723 (Patterns, 2026).
About 190 (3.5%) of roughly 5,400 compounds showed an effect of 50% or more. The list shows a part of the results.

The compounds below were run on Vero-E6 (assay: primary screen, phospholipidosis by LipidTOX staining; higher = more effect of the substance). Details: 10 µM.
Experimental: To measure drug-induced PLD in Vero-E6 cells, we used the HCS LipidTOX Red Phospholipidosis Detection Reagent (Invitrogen, #H34351), which is non-toxic to cell growth and remains well retained after aldehyde fixation. In this setup, compounds (at 10 μM concentration) and controls (amiodarone: 10 μM concentration; DMSO: 0.1 v/v %) were added to clear-bottom, 384-well plates (PhenoPlate 384-well, black, optically clear flat bottom, tissue-culture treated, Revvity #6057302) using the Echo Liquid Handler (Labcyte).
CN1CCN(c2c(F)cc3c(=O)c(C(=O)O)cn(CCF)c3c2F)CC1 showed a result_ITMP of -12.5%. Work on O=C(O)C(O)c1ccccc1 (stereo not drawn) yielded a result_ITMP of -1.64%. For C=CCCCCCCCCC(=O)[O-], the result_ITMP was 1.9%. For CC(=O)OCC(CCn1cnc2cnc(N)nc21)COC(C)=O, the result_ITMP was 7.98%. NNc1nncc2ccccc12 gave a result_ITMP of -2.34%. In the case of O=c1c2c[nH]c3ccccc3c-2nn1-c1ccc(Cl)cc1, the result_ITMP is reported as -10.3%. In the case of CCNC(=O)CCC(N)C(=O)O (stereo in doubt), the result_ITMP is reported as -4.2%. C=CC(=O)Nc1cccc(Oc2nc(Nc3ccc(N4CCN(C)CC4)cc3OC)ncc2Cl)c1 showed a result_ITMP of -1.32%. O=C(/C=C/c1ccc(O)c(O)c1)OCCc1ccccc1 was tested, and the result_ITMP was -9.88%. Work on N[C@@H]1c2cccnc2[C@H](OC(=O)N2CCC(n3c(=O)[nH]c4ncccc43)CC2)CC[C@H]1c1cccc(F)c1F yielded a result_ITMP of -1.5%. For COc1c2occc2c(OC)c2c(=O)cc(C)oc12, the result_ITMP was 0.72%. In the case of COc1ccc(CCN(C)CCCC(C#N)(c2cc(OC)c(OC)c(OC)c2)C(C)C)cc1OC (stereo not drawn), the result_ITMP is reported as 6.5%. Nc1cc(C(Cl)=C(Cl)Cl)c(S(N)(=O)=O)cc1S(N)(=O)=O gave a result_ITMP of -5.15%. In the case of Cc1ccccc1CN1C2=NCCN2C(=O)C2=C1CCN(Cc1ccccc1)C2, the result_ITMP is reported as -4.39%. NCCNS(=O)(=O)c1ccc(Cl)c2ccncc12 gave a result_ITMP of 0.33%. O=C(Nc1ccccc1)Nc1ccc(-c2ccc(C(=O)[C@@H]3CCC[C@H]3C(=O)O)cc2)cc1 [R4A_0000400_001 / SPE_K28861668] showed a result_ITMP of -3.95%. CC[C@H](C)C(=O)O[C@H]1CCC=C2C=C[C@H](C)[C@H](CC[C@@H]3C[C@@H](O)CC(=O)O3)[C@H]21 gave a result_ITMP of -0.91%. Work on O=C(NCCN1CCC2(CC1)C(=O)NCN2c1cccc(F)c1)c1ccc2ccccc2c1 yielded a result_ITMP of 55.1%. Work on CC/C(=C(\c1ccc(OCCN(C)C)cc1)c1cccc(O)c1)c1ccccc1 yielded a result_ITMP of 77.7%. O=C1OCCN1/N=C/c1ccc([N+](=O)[O-])o1 showed a result_ITMP of -2.92%. For NC(=O)c1ccc([N+](=O)[O-])cc1Cl, the result_ITMP was -6.31%. Work on c1ccc2c(c1)[I+]c1ccccc1-2 yielded a result_ITMP of -0.66%. CCOC(=O)[C@H](CCc1ccccc1)N[C@H]1CS[C@H](c2cccs2)CN(CC(=O)O)C1=O was tested, and the result_ITMP was -0.65%. Cc1cn2nc([C@@H]3CCCCN3C(=O)c3cc(Cl)ccc3NS(C)(=O)=O)cc2nc1N1CC[C@H](N)C1 showed a result_ITMP of 20.6%. CN(C)N(C)C(=O)[C@@]1(Cc2ccccc2)CCCN(C(=O)[C@@H](Cc2c[nH]c3ccccc23)NC(=O)C(C)(C)N)C1 was tested, and the result_ITMP was -0.2%. COc1cc(C(=O)NCC2(N(C)C)CCCC2)cc(OC)c1OCc1ccccc1 gave a result_ITMP of 25.4%. With COc1ccc(F)c(F)c1C(=O)c1cnc(NC2CCN(S(C)(=O)=O)CC2)nc1N the result_ITMP was 16.3%. Work on CC(SC(=O)c1cccs1)C(=O)NCC(=O)O (stereo not drawn) yielded a result_ITMP of -5.05%. For CC(=O)O[C@]1(C(C)=O)CCC2C3C[C@H](C)C4=CC(=O)CC[C@]4(C)C3CC[C@@]21C (stereo partly drawn), the result_ITMP was -3.12%. For O=[N+]([O-])c1cc([As](=O)(O)O)ccc1O, the result_ITMP was -5.26%. Compound Cc1ccc([N+](=O)[O-])cc1S(=O)(=O)N(C)C has a result_ITMP of -2.23%. In the case of O=S(=O)(O)c1cc(O)ccc1O, the result_ITMP is reported as -4.32%. For Cc1c(O)c(=O)ccn1C, the result_ITMP was -10.5%. In the case of CN(C)CC/C=C1\c2ccccc2Sc2ccc(Cl)cc21, the result_ITMP is reported as 51.1%. Compound COc1ccc(OC)c(C2C(C#N)=C(N)Oc3[nH]nc(-c4ccc5ccccc5c4)c32)c1 (stereo not drawn) has a result_ITMP of -0.98%. CCN(CC)CC1CCN(c2ncc3ncnc(Nc4ccc(F)c(Cl)c4)c3n2)CC1 gave a result_ITMP of 97%. Compound COc1cc2nc(N3CCN(C(=O)C(C)OC)CC3)nc(N)c2cc1OC (stereo not drawn) has a result_ITMP of 3.88%. For O=C1C[C@@H](c2ccc(O)cc2)Oc2cc(O)cc(O)c21, the result_ITMP was -2.95%. Compound CCC(=O)O[C@]1(C(=O)CCl)[C@@H](C)C[C@H]2[C@@H]3CCC4=CC(=O)C=C[C@]4(C)[C@@]3(F)[C@@H](O)C[C@@]21C has a result_ITMP of -4.27%. For O=C(O)c1ccc2[nH]cc(CCCCN3CC=C(c4ccccc4)CC3)c2c1, the result_ITMP was -12.5%. For CN(Cc1ccccc1)C(=O)[C@H](Cc1ccc2ccccc2c1)NC(=O)[C@@H]1CCCN1C(=O)Nc1ccccc1[N+](=O)[O-], the result_ITMP was 4.15%. CC(=O)Nc1nc(C)c(-c2ccc(Cl)c(S(=O)(=O)NCCO)c2)s1 was tested, and the result_ITMP was -5.63%. With Cc1cc(O)c(-c2ccc([C@@H](C)CN)cc2)c2c1[nH]c(=O)c1sccc12 the result_ITMP was -2.2%. CN[C@H](CC(C)C)C(=O)NC1C(=O)N[C@@H](CC(N)=O)C(=O)N[C@H]2C(=O)NC3C(=O)N[C@H](C(=O)N[C@@H](C(=O)O)c4cc(O)cc(O)c4-c4cc3ccc4O)[C@H](O)c3ccc(c(Cl)c3)Oc3cc2cc(c3O[C@@H]2OC(CO)[C@@H](O)[C@H](O)[C@H]2O[C@H]2C[C@](C)(N)[C@H](O)[C@H](C)O2)Oc2ccc(cc2Cl)[C@H]1O (stereo partly drawn) was tested, and the result_ITMP was -7.09%. COC(=O)C1=C(C)NC(C)=C(C(=O)O[C@@H]2CCCN(Cc3ccccc3)C2)[C@@H]1c1cccc([N+](=O)[O-])c1 (racemic) was tested, and the result_ITMP was 8.13%. With OCC[N+]12CN3CN(CN(C3)C1)C2 the result_ITMP was -1.77%. For CCCCN1CCCC1CNC(=O)c1cc(C#N)c2ccccc2c1OC (stereo not drawn), the result_ITMP was 6.45%. Work on Cc1c(Cl)cccc1S(=O)(=O)Nc1nc(CC(=O)N2CCN(C)CC2)cs1 yielded a result_ITMP of -1.74%. With CN1[C@@H]2CC[C@H]1C[C@@H](OC(=O)N1Cc3ccccc3NC1=O)C2 the result_ITMP was -1.56%. Cc1nc(NS(=O)(=O)c2ccc(N)cc2)oc1C showed a result_ITMP of -0.96%. CCOC(=O)Nc1ccc2c(c1)N(C(=O)CN(CC)CC)c1ccccc1CC2 gave a result_ITMP of 2.01%. For C[N+]1(C)[C@@H]2C[C@@H](OC(=O)C(O)(c3cccs3)c3cccs3)C[C@H]1[C@@H]1O[C@@H]12, the result_ITMP was -2.59%. With OC[C@H]1O[C@@H](Oc2cc(O)cc(/C=C/c3ccc(O)cc3)c2)[C@H](O)[C@@H](O)[C@@H]1O the result_ITMP was -1.94%. In the case of COc1ccc2nc3c(c(N)c2c1)CCCC3, the result_ITMP is reported as 27.8%.
